Results as given in PubChem BioAssay AID1671194 (National Center for Advancing Translational Sciences (NCATS), 2021).
In all, about 140,000 compounds went through this assay and about 240 (0.17%) were called active. Inconclusive results, whose numbers are uncertain, are shown with a selection of clear calls. Calls follow the shape of the dose curve; as a rule, active = well fitted inhibition curve with a large enough effect; inconclusive = small, poorly fitted or top-dose-only effect; inactive = no such curve, though single readings can be large or run the other way. A potency beside an inconclusive call is a rough fit, not a confirmed value.

test: Primary qHTS assay for inhibitors of alpha-synuclein gene (SNCA) expression; conditions: HEK-293 SNCA-luciferase knock-in, luminescence, 24 h; activity change, negative = inhibition: at 57.2 µM (top of the series) unless noted; also: nearly all actives have a fitted effect of over 45% in size;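 as to activity change, negative = inhibition: plate controls were DMSO cells for no effect and cell-free wells for full effect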
Potency is read from the fitted curve at half-maximal effect; tags tell the direction and shape of the fitted curve.

Activity change, negative = inhibition, inactive:
O=C(NCCc1ccccc1)c1nc2sccn2c1-c1cccc(C(F)(F)F)c1 -29.4%
O=C1NCCCCCN(C(=O)c2ccco2)[C@@H]2C[C@@H](C(=O)N3CCc4ccccc4C3)C[C@H]12 -8.31%
O=C1CO[C@H]2CCN(Cc3ccc4c(c3)CCO4)CC[C@@H]2N1Cc1ccccc1 1.03% [at 87.6 µM]
O=C(NCC1CN(Cc2cccc(O)c2)CC12CN(c1ccccc1)C2)c1ccccc1 (configuration not stated) -8.4% [at 87.6 µM]
O=C(O)Cc1cccn1-c1ccc(Cl)cc1 7.15%
Cc1ccc2nc(CO[C@H]3CN(c4ccc(C#N)cn4)C[C@H]3F)[nH]c2c1 -13.4% [at 87.6 µM]
CN1CCOc2c(C(=O)NCc3cnn(C)c3)cc(-c3cccnc3)cc21 -15.4% [at 87.6 µM]
COc1ccc(C(=O)N2CCCC(c3nc(-c4ccccc4)no3)CCNC(=O)CC2)c(OC)n1 (configuration not stated) 214%
CC(C)c1nc(-c2ccc(OC3CCN(C(=O)c4n[nH]c5ccccc45)C3)cc2)no1 (configuration not stated) -8.81%
CCCNC(=O)Cc1csc2nc(C)c(-c3cc(C)n(-c4ccc(C)cc4)n3)c(=O)n12 18%
COc1ccccc1Cn1c(=O)c(C(=O)NC(C)c2ccc(F)cc2)nc2cccnc21 (configuration not stated) -2.38%
CN(C)C[C@@H]1CN(c2ncccn2)C[C@H]1NC(=O)Cc1ccc(F)cc1 0.591%
Cc1ccc(NC(=O)Cn2c(=O)nc(-c3ccccc3F)c3cc(Cl)ccc32)c(Br)c1 8.97%
N#Cc1cccc(C(=O)N2CC(COc3ccccc3)C3(C2)CN(c2ccccc2)C3)c1 (configuration not stated) -21.5% [at 87.6 µM]
O=C(c1ccc2c(c1)OCO2)N1CCN(c2ccnc3ccnn23)CC1 2.95%
Cn1ccc2c(C(=O)NCc3cccnc3)nc(-c3ccc([S+](C)(=O)[O-])cc3)cc21 -5.32% [at 87.6 µM]
c1cc(CN2CCc3c(sc4ncnc(N5CCCC5)c34)C2)ccn1 83.2%

Potency, inactive:
c1cnc2nc(-c3ccsc3)[nH]c2c1

Potency, inconclusive:
COc1ccc(NS(=O)(=O)c2ccc3c(c2)n(C)c(=O)c(=O)n3C)cc1Cl 39.8 µM [inhibitor, single point]
Cc1ccc(CNC(=O)c2cnn(-c3ccc(F)cc3F)c2C2CCN(C(=O)OC(C)(C)C)CC2)cc1 15.8 µM [inhibitor, partial curve, poor fit]
COCC1CN(Cc2ccc(F)c(F)c2)CC12CCNCC2 (configuration not stated) 6.31 µM [inhibitor, full curve, poor fit]
CC(=O)NC1(C)CCN(Cc2ccccc2-c2ccc3ccccc3c2)C1 (configuration not stated) 35.5 µM [inhibitor, single point]
COc1cccc(N2CCN(C(=O)c3ccc4c(c3)C(O)CCCCCN4C)CC2)c1 (configuration not stated) 39.8 µM [inhibitor, single point]
CC(=O)c1c(C)oc2ccc(N(C(=O)c3ccncc3)S(=O)(=O)c3ccc(F)cc3C)cc12 14.1 µM [inhibitor, partial curve, poor fit]
COCCN1Cc2ccc(NCc3ccccc3)nc2C(C)(C(=O)Nc2ccn(C)n2)C1 (configuration not stated) 56.2 µM [inhibitor, single point]
O=C1c2c(nc(COc3cccc(F)c3)n2Cc2ccccc2)NCCN1CC1CC1 22.4 µM [inhibitor, partial curve, poor fit]
CCCNc1cc(N2CCC(CCC(=O)N3CCN(c4ccccc4F)CC3)CC2)ncn1 15.8 µM [inhibitor, partial curve, poor fit]
COc1ccccc1-c1ccnc2c(-c3ccc(Br)cc3)c(C)nn12 2.82 µM [inhibitor, partial curve, poor fit]
CCN1CCN(CCCNC(=O)c2ccc3c(c2)sc2nc(-c4ccc(C)cc4)cn23)CC1 39.8 µM [inhibitor, single point]
CCc1ccc(NC(=O)c2ccc3c(c2)N(CC)C2CCCCN2C3=O)cc1 (configuration not stated) 39.8 µM [inhibitor, single point]
CN(C(=O)c1oc(=O)c2ccccc2c1-c1ccccc1)c1cccc(Cl)c1 39.8 µM [inhibitor, single point]
Cc1ccc(C(=O)N2CCC(N3C(=O)C4(CCCCC4)C3c3ccncc3)CC2)s1 (configuration not stated) 12.6 µM [inhibitor, partial curve, poor fit]
O=C(c1ccccc1Cl)N1CCC2(C1)C(=O)N(CCc1ccccc1)c1ccccc12 (configuration not stated) 22.4 µM [inhibitor, single point]
CCNC(=O)c1noc(-c2cc(C(C)C)c(O)cc2O)c1-c1ccc(CN2CCOCC2)cc1 0.136 µM [inhibitor, full curve]
CCOc1ccc(-c2cc(CCCC(=O)NCCc3ccc(OCC)c(OCC)c3)no2)cc1 1 µM [inhibitor, full curve, poor fit]
COc1ccc(-c2ccnc(N[C@H]3CO[C@H]4[C@@H]3OC[C@@H]4NS(=O)(=O)c3ccccc3C#N)n2)cc1 8.91 µM [inhibitor, single point]
Cc1ccc(-c2ncn(-c3ccc(Nc4nccc(-c5cccc(N6CCOCC6)c5)n4)cc3)n2)cn1 3.83 µM [inhibitor, full curve, poor fit]
CC(C)CCNC(=O)CCC1CCCN(S(=O)(=O)c2ccc(F)cc2)C1 (configuration not stated) 22.4 µM [inhibitor, partial curve]
Cc1cnc(-c2cnc(NCCNc3ccc(C#N)cn3)nc2-c2ccc(Cl)cc2Cl)[nH]1 8.57 µM [inhibitor, full curve, poor fit]
NCCO[C@H]1C[C@@H](O)C12CCN(C(=O)c1ccc(=O)[nH]c1)CC2 7.08 µM [inhibitor, single point]
COc1ccc(N2CC(C(=O)NCc3cccc(OC)c3)NC2=O)cc1 (configuration not stated) 39.8 µM [inhibitor, single point]
O=C(Cc1ccc(F)cc1)N1CCC2(CCC(=O)N(CC3CC3)CC2)CC1 5.01 µM [inhibitor, single point]
O=C(c1ccn[nH]1)N1CCC[C@H](n2c(=O)n(CC3CC3)c3cccnc32)C1 7.08 µM [inhibitor, single point]
COc1ccc(CCNC(=O)CCn2c(=O)c3ccccc3n(Cc3c(C)cc(C)cc3C)c2=O)cc1OC 3.55 µM [inhibitor, single point]
Cc1ccc(C2Cn3nnc(C(=O)N4CCN(C(=O)c5cc(Cl)ccc5F)CC4)c3CO2)cc1 (configuration not stated) 39.8 µM [inhibitor, single point]
COc1ccc(-c2nnc(SCC(=O)NCc3ccccc3)nc2-c2ccc(OC)c(OC)c2)cc1OC 25.1 µM [inhibitor, single point]
O=C(NCc1cccc(C(F)(F)F)c1)c1ccc2nc(-c3cccnc3)oc2c1 39.8 µM [inhibitor, single point]
CN1c2cc(C(=O)N3CCN(c4ccccc4F)CC3)ccc2C(=O)N2CCCCCC21 (configuration not stated) 22.4 µM [inhibitor, single point]
Cc1ccc(Cl)cc1NC(=O)C1CCCN(S(=O)(=O)c2c(C)noc2/C=C/N(C)C)C1 (configuration not stated) 39.8 µM [inhibitor, single point]
COCCOCC(=O)N1CCC2(CC1)NCCc1c2[nH]c2ccc(OC)cc12 39.8 µM [inhibitor, single point]
COc1cccc(C(=O)N(Cc2cccc(Cl)c2)Cc2ccco2)c1 31.6 µM [inhibitor, partial curve, poor fit]
COc1cc(C(=O)NCCSc2c(-c3ccccc3)[nH]c3ccccc23)cc(OC)c1OC 35.5 µM [inhibitor, single point]
CC(C)(C)c1ccc(OCC(=O)Nc2c(C(=O)c3ccc(F)cc3)oc3ccccc23)cc1 17.8 µM [inhibitor, single point]
COc1ccc(CCCc2nnc(SCC(=O)Nc3ccc(C)c(C)c3)o2)cc1 20 µM [inhibitor, single point]
Cn1cccc1C(=O)N1CC[C@@H]2CN(S(C)(=O)=O)[C@@H]2C1 20 µM [inhibitor, partial curve, poor fit]
COc1ccccc1N1CCCc2ncc(C(=O)NCCc3c[nH]c4ccccc34)cc21 56.2 µM [inhibitor, single point]
CC(=O)N1C2CCC1CN(c1ccc(C(F)(F)F)cc1)C2 2 µM [inhibitor, full curve, poor fit]
O=C(Nc1ccc(Cl)cc1Cl)c1cnn2c1CN(C(=O)c1cccnc1)CC2 8.91 µM [inhibitor, single point]
Oc1c(C(c2ccc(Cl)cc2)N2CCOCC2)sc2nc(-c3ccco3)nn12 (configuration not stated) 4.47 µM [inhibitor, full curve, poor fit]
CC(C)c1ccc(C(=O)N2CCC(Cc3nc(-c4ccc(F)cc4)no3)CC2)cc1 0.708 µM [inhibitor, single point]
COc1cccc(-c2noc(CC3CCN(C(=O)c4ccc(C)cc4C)CC3)n2)c1 2.24 µM [inhibitor, full curve, poor fit]
Cc1csc(Nc2ccc3c(n2)CN(C)C(=O)CO3)n1 89.1 µM [inhibitor, single point]
